The source gives no read counts; variants with many changes may rest on few reads.

The results in this text go back to the RNAGym collection of RNA variant scans (doi:10.7554/elife.90254).

To fix the notation:
B1: LINE1-mini (parent)
chain: GGCAGAGCUCAACACAGCGUGGCAAAGUGGCUGUGGCUAGACUGCC

Variants of B1 are the subject of this data set. Nature of the data set: self-cleavage, relative activity (ratio to wild type); higher = more cleavage; in vitro, sequencing; the parent is a self-cleaving ribozyme.
Turning to C10A C18U C45U, the self-cleavage was 0.03. Regarding C10A G21C C31U, the self-cleavage turned out to be 0.03. Consider C10A A25C G29U G33U, for which the self-cleavage is 0. In the case of C10A G17U C23A G33C it was 0.01; in that of U9G U32G A39U, 0.02; in that of C10A C23U A25U C42G, 0.02. On to C10A A39C C45U, for which the self-cleavage stood at 0.07.

Consider C10G A14C C23U, for which the self-cleavage came out at 0.01. In the case of C10A C23U A39C G44C C46G it was 0.06.

Consider C10A G17A G33U U34C, for which the self-cleavage was 0.01.

Consider C10A G30A G40C C46U, for which the self-cleavage was determined as 0.01. The value for C10G A11G A39C C46A was 0.01; that for C10A A11U C45U was 0.08; that for C10A C15U G21U U28C C31G was 0.02. Take C10G A16C G17U U34G C45G: the self-cleavage was 0. In the case of C10G C13U A39U it was 0.02; in that of C10A G29U G30A C42U, 0.05.

For C10A G17U G19U C37U, the self-cleavage was determined as 0. In the case of C10A A16U C23U it was 0.05. The value for C10G A14U A16C A25C G27A U43C was 0; that for C10A A12G C18U G36U was 0; that for C10G G17A G40A C42U was 0.02.

As for C10A A11U A12U U20A, the self-cleavage was found to be 0.01. Consider C10A A24G G36U, for which the self-cleavage was 0.02. With C10G C15G A25C, the self-cleavage was 0.03.

As for C10A G36A U38G G44U, the self-cleavage worked out at 0.03.

As to C10A C23U A39G G40C C45A, the self-cleavage came out at 0.01.

As for C10A A11U A14U G44U, the self-cleavage was determined as 0.01.

As to C10A A11C C15A, the self-cleavage was determined as 0. As for C10G G22C A41U C46A, the self-cleavage is 0. The value for C10A A11C A25C G27C was 0.02; that for C10G G19A A26C C37G C42U was 0. In the case of C10G C18U C37A C46U it was 0; in that of C10A G33A G35C, 0. With C10G A11U A24C G35U A39C, the self-cleavage worked out at 0. In the case of C10A C15U U43C it was 0.02. In the case of C10G A14U A41C it was 0; in that of C10G A12C C23G A26G U34G C46U, 0.01; in that of C10G A11U G22A C23A A39U G44U, 0. In the case of C10A A14C C23U G35U it was 0; in that of C10A A12G G22A G30U C31G U34G G40A, 0; in that of C10A A16C C18U A26C, 0.03. Turning to C10A G17A G27C, the self-cleavage came to 0.05. The value for C10G C15G G19U was 0.03. With C10G C23G A24C G44A, the self-cleavage came to 0.03. The value for C10A G36A A39G was 0.02. The value for C10A C13A G22U G27A C37A was 0.01; that for C10G A11G G29A was 0.01; that for C10A G22C G33U was 0.04.

Consider C10A U34A G40C, for which the self-cleavage turned out to be 0.02.

Take C10G C15A G19U C37G: the self-cleavage was 0.01. For the variant C10A U38G A39U, the self-cleavage came out at 0.06. As for C10G A11C G35A G36U, the self-cleavage was found to be 0.01.

As to C10A A11C A14C A39U, the self-cleavage amounted to 0.01. On to C10A G19U G36U C45A, for which the self-cleavage worked out at 0.01. With C10A C31U G35A G44U, the self-cleavage amounted to 0.01. The value for C10A G21U G40U was 0.02; that for C10G G27C U34A C45U was 0.02; that for C10A C37A A41U was 0.02.

With C10A A14C G21A G22A, the self-cleavage turned out to be 0.02.

Take C10A G36U U43C C45U: the self-cleavage turned out to be 0.01. The value for C10A A14C G17U G21U was 0.03; that for C10A A14U C31G U34A was 0.01. With C10A C31A A39U, the self-cleavage turned out to be 0.01. Consider C10A U32C G44C, for which the self-cleavage stood at 0.01. The value for C10A A24C C31A was 0.03; that for C10G A12U G35A was 0.01.

With C10A C13G A26U G29A U38A, the self-cleavage stood at 0.02.

On to C10A G21U C45A, for which the self-cleavage was 0.02. In the case of C10A C18U U28C G36U it was 0; in that of C10A G33C A39U, 0.02; in that of C10G A16U C23G U32A C42U U43G, 0.01. In the case of C10G A12C G17C A41G it was 0.01; in that of C10A G35U A39G, 0.05; in that of C10A G22A U34A C46A, 0.03. As to C10A A12C C13G U34G G44U, the self-cleavage stood at 0.01. The value for C10A G22A G33C was 0.02; that for C10A U20G C46A was 0.04; that for C10A G19A A24C G35A G36A was 0.01.

For C10G A11U C18G U28A, the self-cleavage amounted to 0.02. As to C10A A11U G17C C37A, the self-cleavage was found to be 0.01. Turning to C10G C23G G29A C31A, the self-cleavage came out at 0.15. For the variant C10A A11U A16G C37U G44U, the self-cleavage worked out at 0. In the case of C10A G19C C37U it was 0.01. In the case of C10G G17A G33C it was 0.04.

Regarding C10A A11U C13U A39G, the self-cleavage was determined as 0.03. The value for C10A A12G G21U was 0.01; that for C10A A12C A16U C31U was 0.01; that for C10A A41C C42G was 0.02. Regarding C10A C18U A26C U38A, the self-cleavage came to 0. The value for C10A C15U C42G was 0.02. C10A G21C G36C: the self-cleavage stood at 0.01. With C10G A25U U34A, the self-cleavage came to 0.02.

For the variant C10A C18U G35C C46U, the self-cleavage stood at 0.01. The value for C10A C18A G36A G40A was 0.03. The value for U9G U28C G30C G36U was 0.04; that for C10A U20A C23G was 0.03; that for C10A A26C G33C was 0.02. In the case of C10A A16U A41C, the self-cleavage stood at 0.02. Take C10G G22U G35U: the self-cleavage turned out to be 0.02. As for C10G A11U C46A, the self-cleavage came out at 0.01. The value for C10A A16G U20A was 0.01; that for C10A G19U A25U G33C was 0. The value for C10G A12U U28G U32G was 0.04; that for C10A A16C G29A was 0.03; that for C10G C15G U20C was 0.02. In the case of C10G A16G U20C A24G G27C it was 0.02.

For the variant C10A A14G G17A C45U, the self-cleavage is 0.03. As for C10G A14U C15U, the self-cleavage was found to be 0.02. As for C10A G36A U38C, the self-cleavage was 0.02. Take C10A G29A U38G: the self-cleavage was found to be 0.03.

Turning to C10G A26C G27C U32C G33U U43A C45A, the self-cleavage was determined as 0. The value for C10A C13U C46U was 0.02. As for C10A G17C G29A A41U, the self-cleavage was determined as 0.01. Consider C10A G21U G30U G33C, for which the self-cleavage was determined as 0.1. Take C10G G21C G27C G35U: the self-cleavage was determined as 0.01.

Take C10G C15A U20G U34C G44C: the self-cleavage is 0. With C10A A14U U20A G36C, the self-cleavage worked out at 0.

For C10G C13A A41G, the self-cleavage was 0. As to C10G G17U G22U G35A U43G, the self-cleavage stood at 0.02. With C10A A26C G35A, the self-cleavage is 0.01. The value for C10A A14G G17C C37G was 0; that for C10G A11G A12C C18G A26U G33C was 0.01; that for C10A A12U A16C was 0. Take C10A C13A A26C A39C: the self-cleavage amounted to 0.02. In the case of C10A G19U G29C it was 0.04; in that of C10A G27A G44A, 0.06. In the case of C10A C13U U28G G36A A39C it was 0.02; in that of C10G G22C C23G G35C, 0.

Turning to C10A A25U U38A C42G C45U, the self-cleavage stood at 0.02. The value for C10A A12C G17C C45U was 0.02; that for C10A G36U C37A was 0.01. In the case of C10A C15A A16G G17C U38C it was 0.04; in that of C10A A12G A16C, 0.05. For the variant C10A A16U G21C G33A C45A, the self-cleavage is 0.02. In the case of C10A G22U C31G C42G it was 0.02; in that of C10G C18A C37U, 0.01; in that of C10A A24C A26G, 0.03. The value for C10A G19U C37G was 0.01; that for C10G G17A G21U was 0.21.

In the case of C10A A24C A25U A41C C42G, the self-cleavage was 0. With C10A G19C U28G, the self-cleavage amounted to 0.05.

In the case of U9G U20G U32G, the self-cleavage came to 0.04.

Regarding C10A G19U G22A A39G, the self-cleavage came to 0.01.

With C10A G33U G35C, the self-cleavage was found to be 0.03. On to C10G G27A G30C, for which the self-cleavage is 0.06. On to C10G C18G U20G G21U, for which the self-cleavage came out at 0.06. As for C10A C18U C23U G35C A41C, the self-cleavage stood at 0.01. C10A U20A A39G: the self-cleavage is 0.02.

Regarding C10G C23A G40C A41G C45G, the self-cleavage stood at 0.02. The value for C10A G17C A26C U43G was 0; that for C10G A11U A26C G40U was 0.01; that for C10A G17A U20A was 0.02. In the case of C10A A26U C46U, the self-cleavage worked out at 0.03. In the case of C10A G35A G44U it was 0.03; in that of C10G G17A A41G C42A, 0.04; in that of C10G G27C G30A G36C, 0.

Take C10A G22A A24G U38A: the self-cleavage amounted to 0.04.

With C10A C15A G17A U20C U32C, the self-cleavage came to 0.01. Regarding C10G C15U G30C, the self-cleavage was found to be 0.01. The value for C10A G19C U28C U43C was 0; that for C10A C15U G19C C42U was 0.05. In the case of C10A G35C G36C U38C it was 0; in that of C10A A24C A41U G44A, 0.01. Consider C10G C15A G40C, for which the self-cleavage came out at 0.01.

C10G C13U A24G G27A G36A U43A: the self-cleavage was 0.01. Take C10G A11U G19A G33A: the self-cleavage was determined as 0.02.
